Our source for the self-cleavage values is the RNAGym collection of RNA variant scans (doi:10.7554/elife.90254).

The source gives no read counts; variants with many changes may rest on few reads.

B1: LINE1-mini (parent)
chain: GGCAGAGCUCAACACAGCGUGGCAAAGUGGCUGUGGCUAGACUGCC

The variants in the series derive from B1. In words: self-cleavage, relative activity (ratio to wild type); higher = more cleavage; in vitro, sequencing; the parent is a self-cleaving ribozyme.
On to GGCAGACCUUAACACAGCGUGGCAAUGUGGCUGUGGCUAGACUGCG, for which the self-cleavage came to 0.02.

Consider GGCAGACCUAAACACAGGGUGGCAAAGAGGCUGUGCCUAGACUGCC, for which the self-cleavage came to 0.02. As for GGCAGACCUGGACACAGCGUCGCAAAGUGGCAGUGGCUAGACUGCC, the self-cleavage was 0.01.

As to GGCAGACCUCAAGACAGCGUGGAAAAGUGGCCGUGGCUAGACUGCC, the self-cleavage was found to be 0.01. GGCAGACCUCAACAUGGCGUGGCAAAGUGGCUGUGGCUAGACUGCC: the self-cleavage was 0.05. In the case of GGCAGACCUGAACACAGCGUGGCAAAGUUGCUGUGGCUAGUAUGCC, the self-cleavage stood at 0.01.

As to GGCAGACCUAAAUACAGCGUGGCAAAGUAGAUGUGGCUAGACUGCC, the self-cleavage is 0.07. Consider GGCAGACUCCAACACAGCGUGGCACAUUGGCUGUGGCUAGACUGCC, for which the self-cleavage was determined as 0.04. With GGCAGACCUCAACACAGCGUGGAAAAGUGGGUGUGGCUAGACUGCC, the self-cleavage was found to be 0.01. Take GGCAGACCUCAAAAAAGCGUGGCAAAGUGGCUGUGGCUAUACUGCC: the self-cleavage amounted to 0.04. For the variant GGCAGACCUCAACACAGCGUGGUAAAGUGGCUGUGGCUAAACCGCC, the self-cleavage came out at 0.07.

On to GGCAGACCUCAACACAGCGUGGCAAAGUGGCUGUGGCUAGAAUACC, for which the self-cleavage amounted to 0.06. With GGCAGACCUCAACACAGCGUGGCAAAGUGGCUGUGGGCAGACUGCC, the self-cleavage worked out at 0.01. Take GGCAGACCUCAACACACCGUGGCAACGUGGCUGUGGCUAUACUGCC: the self-cleavage stood at 0.09. For the variant GGCAGACCUCAACACAGAGUGGAAAAGUGGCUGUGGCUAGACUGCA, the self-cleavage stood at 0.06. The same measure for GGCAGACUUCAAUACAGCGUGGCAAAGUGGCUGUGGCUAGACUGCC: 0.32; for GGCAGACUUUAACACAGCGUGGCAAAGUGGCUGUGGCUAGACUGCC: 0.05; for GGCAGACUUCAACACAGCGUGGCAAAGUCGCUGUGCCUAGAAUGUC: 0.02. For GGCAGACCUCAAAACAGCGAGGCAAAGUGUCUGUGGCUAGACUGCC, the self-cleavage was found to be 0.01. Regarding GGCAGACCUAAACUCAGCGUGGCAAAGUGGCUGUGGCUAGACUGCC, the self-cleavage turned out to be 0.03. The same measure for GGCAGACCUCAAUACAGCGUGGUAAAGUGGCUGUGGCUAGACUGCC: 0.13; for GGCAGACCUCAACAGAGCAUGGUAAAGUGGCUGUGGCUAGACUGCC: 0.07; for GGCAGACCUCAACACACCGUGGCAAAGUGGUUGUGGCUCGACUGCC: 0.04.

Consider GGCAGACCUCAACACAUCGUGGCACAGUGGAUGUGGCUAGACUGCC, for which the self-cleavage was found to be 0.04.

In the case of GGCAGACUUCAGCACAGCCUGGCAAAGUGGCUGUGGAUAGACUGCC, the self-cleavage amounted to 0.02.

For the variant GGCAGACCUCAACACAGCGUGGAAAAGUGGCUGGGGCUAGACUGCC, the self-cleavage turned out to be 0.04.

GGCAGACCUCAAAACAGCGUGGCAAAGUGGCUGGGGCUAGACUGCC: the self-cleavage came to 0.04. Regarding GGCAGACAUCAACACAGCGUGGCAAAGUGGCUGUGGCUAUACUGCC, the self-cleavage came out at 0.15. On to GGCAGACCUCAACACAGCGUGGCAAAGUGGUUAUUGCUAGACUGCC, for which the self-cleavage is 0.1. Regarding GGCAGACCUCAACAUAGCUUGGCAAAGUGGCUGUGGCAAGACUGCC, the self-cleavage came to 0.04. With GGCAGACCUCAACACAGCGUGGCAAAGUGGUUGUGGCUAGAAUGGC, the self-cleavage came to 0.02.

Take GGCAGACCUCAAAACAGCAUGGCAAAGUGGCUGUGGCUCGACUGCC: the self-cleavage was 0.02. Turning to GGCAGACCUAAACACAGCGUGGCAAAGUUGCUGUGGCUAGACUGCC, the self-cleavage came to 0.04. The same measure for GGCAGACCUCAAGACAGCGUGACAAAGUGGCUGUGGCUAGACUGCC: 0.1; for GGCAGACCUCAACACAACGUGGCAAAGUGACUGGGGCAAGACUGCC: 0.01; for GGCAGACUUCAACACAGCGUGGCAAAGUGGGUGUGGCUAGACUGCA: 0.12. GGCAGACCUCAAUACAGCGUGGCAAAGUGGCUGUGGCUAGACUUCC: the self-cleavage was 0.04. In the case of GGCAGACCUUAAAACAGCGUGGCAAAGUGGGUGUGGCUCGACUGCU, the self-cleavage was 0.02. In the case of GGCAGACCUCAAGACAGCGUGGUAAUGUGACUGUGGCUAGACUGCC, the self-cleavage worked out at 0.01. As for GGCAGACCUCAACACAACGUGGCAAAGUCGCUGUGGCUAGACUGCC, the self-cleavage was determined as 0.08. With GGCAGACCUCAACACAGCGUGGGAAAGUGGCUGCGGCUAGACUGCC, the self-cleavage was determined as 0.04. With GGCAGACCUAAACACAGCGUGACAAAGUGGCUGUGGAUAGACUGCC, the self-cleavage was determined as 0.02.

In the case of GGCAGACCUCAACACAGCGUGGCAAAGUGGAAGUGGCUAGACUGCC, the self-cleavage is 0.1. Regarding GGCAGACCUCAACACAGAGUGGCAAAGUUGCUGUGUCUAGACUGCC, the self-cleavage worked out at 0.13. In the case of GGCAGACCUCAACACAGUGUGGCGAAGUGGCUGUGGCUAGACUGCC, the self-cleavage came to 0.11. In the case of GGCAGACCUCAACACACCGUGGCAAAGUGGCUCUAGCUAGACUGCC, the self-cleavage is 0.06. As for GGCAGACCUAAACACAGCGUGGCAAAGUGGCUGUGGCUAUACUGCC, the self-cleavage is 0.03.

Consider GGCAGACCUGAACACAGCGUGGCAACGUGGCGGUGGCUAGACUGCC, for which the self-cleavage was found to be 0.02. Regarding GGCAGACCUGAAUACAGCGUGGCAAAGUGGCUGUGGCCACACUGCC, the self-cleavage came to 0.

Turning to GGCAGACGUCAACACAGCGUGGCAAAGUCGCUGAGGGUAGACUGCC, the self-cleavage worked out at 0.11.

Regarding GGCAGACCUCAACACAGUGUGGCAAAGUGGCUGUGGCUCGACUGCC, the self-cleavage was determined as 0.04. As to GGCAGACCUUAACACAGCGUGGCAAAGUGGCAGUGGCUAGACUGCC, the self-cleavage was found to be 0.03. For the variant GGCAGACCUAAACACAUCGUGGCAAAGUGGCUUUGGCUAGACUGCC, the self-cleavage is 0.04. GGCAGACCUCAACACAACGGGGCAAAGUGGCUGGGGCUAGACUGCC: the self-cleavage turned out to be 0.06. Turning to GGCAGACCUCAACAAAACGUUGCAAAGUGGCUGUGGCUAGACUGCC, the self-cleavage worked out at 0.17. In the case of GGCAGACCUUAACAUAGCUUGGCAAAGUGGCUGUGGCUAGACUGCC it was 0.04.
